# According to PubChem BioAssay (NCATS):
# The inconclusive results got no clear call from the source; some entries with a clear call stand among them for comparison. For some assays here: Potencies of inconclusive entries are left out as doubtful fits. For some assays here: “Side channel” marks fits to a control or component signal instead of the main read-out. Activity calls are given as the source filed them. Unless noted, calls come from the whole dose curve; as a rule, active = well fitted curve in the direction sought with a large enough effect; inconclusive = small, poorly fitted or top-dose-only effect, or another doubt; inactive = no such curve, though single readings can be large; an effect the other way counts as inactive or inconclusive.
# Assays:
# [1] = target: ATPase family AAA domain-containing protein 5 (Homo sapiens) (UniProt Q96QE3); assay: qHTS screen for small molecules that inhibit ELG1-dependent DNA repair in human embryonic kidney (HEK293T) cells expressing luciferase-tagged ELG1: Hit Confirmation using MMS Stimulated ELG1 (AID 624249); conditions: HEK293T luciferase-tagged ELG1 level; note: potency is the fitted concentration of half-maximal effect; nearly all actives have a fitted effect of over 60% in size
# Sequence of UniProt Q96QE3 (Q96QE3 whole entry, looked up, the tested form may be a part): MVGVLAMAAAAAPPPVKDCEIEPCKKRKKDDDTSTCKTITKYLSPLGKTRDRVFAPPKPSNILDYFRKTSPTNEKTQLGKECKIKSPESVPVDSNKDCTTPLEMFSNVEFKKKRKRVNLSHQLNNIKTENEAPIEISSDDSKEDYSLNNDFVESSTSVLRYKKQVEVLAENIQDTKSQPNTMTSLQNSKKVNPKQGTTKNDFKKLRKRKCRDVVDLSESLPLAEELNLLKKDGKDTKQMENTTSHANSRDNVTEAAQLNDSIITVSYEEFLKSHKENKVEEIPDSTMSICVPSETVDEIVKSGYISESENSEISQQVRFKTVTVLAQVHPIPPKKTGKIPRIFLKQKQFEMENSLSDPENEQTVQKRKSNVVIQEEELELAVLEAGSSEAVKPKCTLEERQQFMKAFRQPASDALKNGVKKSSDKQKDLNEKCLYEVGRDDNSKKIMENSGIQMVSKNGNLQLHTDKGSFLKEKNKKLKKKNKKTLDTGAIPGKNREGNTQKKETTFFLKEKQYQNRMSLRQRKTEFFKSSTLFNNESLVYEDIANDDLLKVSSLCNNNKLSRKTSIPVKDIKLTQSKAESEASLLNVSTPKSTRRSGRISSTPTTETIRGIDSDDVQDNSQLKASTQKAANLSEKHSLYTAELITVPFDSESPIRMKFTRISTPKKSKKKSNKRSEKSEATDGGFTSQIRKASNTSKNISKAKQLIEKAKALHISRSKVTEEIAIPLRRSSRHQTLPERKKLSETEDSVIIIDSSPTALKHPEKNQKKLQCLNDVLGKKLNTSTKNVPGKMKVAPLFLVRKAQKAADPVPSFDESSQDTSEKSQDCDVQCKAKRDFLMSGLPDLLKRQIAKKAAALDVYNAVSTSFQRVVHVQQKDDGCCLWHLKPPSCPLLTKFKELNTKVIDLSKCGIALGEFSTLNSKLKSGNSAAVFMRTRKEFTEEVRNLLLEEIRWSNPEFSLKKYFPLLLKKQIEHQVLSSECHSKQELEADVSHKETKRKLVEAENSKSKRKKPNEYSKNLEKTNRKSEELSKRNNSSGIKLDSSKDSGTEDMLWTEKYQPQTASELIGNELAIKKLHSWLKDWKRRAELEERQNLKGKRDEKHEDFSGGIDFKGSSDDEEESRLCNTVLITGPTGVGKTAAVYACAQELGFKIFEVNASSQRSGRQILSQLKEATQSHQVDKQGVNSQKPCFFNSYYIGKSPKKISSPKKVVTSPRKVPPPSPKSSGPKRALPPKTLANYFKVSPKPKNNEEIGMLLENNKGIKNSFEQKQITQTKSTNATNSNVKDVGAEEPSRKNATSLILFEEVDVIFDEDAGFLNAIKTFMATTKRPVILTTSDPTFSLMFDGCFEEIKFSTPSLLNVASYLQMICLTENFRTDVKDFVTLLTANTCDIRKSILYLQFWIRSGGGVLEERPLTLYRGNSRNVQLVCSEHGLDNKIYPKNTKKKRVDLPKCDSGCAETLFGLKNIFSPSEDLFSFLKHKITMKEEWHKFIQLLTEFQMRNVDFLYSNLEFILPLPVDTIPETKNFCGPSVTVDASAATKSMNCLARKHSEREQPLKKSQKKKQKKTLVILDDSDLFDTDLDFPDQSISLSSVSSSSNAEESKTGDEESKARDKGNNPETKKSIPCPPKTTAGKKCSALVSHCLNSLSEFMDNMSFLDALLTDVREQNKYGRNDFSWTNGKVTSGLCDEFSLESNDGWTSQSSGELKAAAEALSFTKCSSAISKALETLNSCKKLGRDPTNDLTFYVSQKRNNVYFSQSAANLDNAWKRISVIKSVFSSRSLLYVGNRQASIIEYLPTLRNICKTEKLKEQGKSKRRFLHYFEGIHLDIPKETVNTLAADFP
# In short: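 Luminescence from luciferase-tagged ELG1 measured 16 h after pin-tool compound transfer into HEK293T cells stimulated with 10 µM MMS (final). Compounds lowering luciferase signal counted as inhibitors of ELG1 response.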
# [2] = qHTS screen for small molecules that inhibit ELG1-dependent DNA repair: Hit Confirmation with 5FU Viability (AID 624250); conditions: cell viability with 5-FU; series mostly up to 46.1 µM; note: % is set by controls: 0 for no effect and ±100 for the full control effect
# In short: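 Viability by CellTiter-Glo after 16 h of compound exposure in the presence of 10 µM (final) 5-fluorouridine. Cells were ELG1-luc HEK293T, plated at 2000/well, dosed about 5 h post-seeding.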
# [3] = qHTS screen for small molecules that inhibit ELG1-dependent DNA repair: Hit Confirmation with MMS Viability (AID 624251); conditions: Cell viability with MMS;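 note: potency is the fitted concentration of half-maximal effect; viability read 16 h after compound addition; nearly all actives have a fitted effect of over 60% in size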
# In short: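 CellTiter-Glo viability of ELG1-luc HEK293T cells after 16 h with compound plus 10 µM MMS.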
# [4] = J3T Cancer Cell Toxicity qHTS against the NCATS CANVASS Library (AID 1347371); conditions: J3T dog glioma viability, ATP luminescence, 72 h; series mostly up to 46.1 µM; note: potency is the fitted concentration of half-maximal effect
# In short: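 Luminescence from CellTiterGlo, reporting cellular ATP, serves as the viability measure after 72 hr compound treatment of J3T canine glioma cells seeded at 500 cells/well.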
# [5] = qHTS for Activators of p53 Stress Response Pathway screened against the NCATS CANVASS Library (AID 1347388); conditions: p53RE-bla HCT-116, beta-lactamase reporter, 16 h; series mostly up to 46.1 µM; note: potency is the fitted concentration of half-maximal effect
# In short: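 p53RE-bla HCT-116 cells (4000/well) were pre-incubated for 5 h, then treated with compound (11 points) for 16 h at 37C. After 2 h with CCF4, the 460/530 nm ratio gave reporter activation; CellTiter-Glo measured viability.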
# [6] = Secretion counterscreen for inhibitors of the SERCaMP assay screened against the NCATS CANVASS Library (AID 1347390); conditions: SH-SY5Y constitutive GLuc secretion, luminescence, 20 h; series mostly up to 76.6 µM;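 note: light from luciferase secreted into medium read as a measure of general secretion; potency is the fitted concentration of half-maximal effect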
# In short: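 Counterscreen for secretory-pathway interference: after 4 h attachment, SH-SY5Y-GLuc cells were exposed 20 hours to compounds (final 0.001 - 77 uM), then coelenterazine added and GLuc luminescence recorded; Brefeldin A served as control.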
# [7] = qHTS for inhibitors of ER calcium dysfunction: SERCaMP assay screened against the NCATS CANVASS Library (AID 1347393); conditions: SH-SY5Y GLuc-SERCaMP secretion, thapsigargin, luminescence; activity change, negative = inhibition: at 76.6 µM (top of the series); note: potency is the fitted concentration of half-maximal effect; nearly all actives have a fitted effect of over 40% in size
# In short: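 SH-SY5Y GLuc-SERCaMP, 1000 cells/well, 4 h attach; cpd 16 h, 37C/5% CO2; thapsigargin (added as 6x 600 nM) 4 h; coelenterazine; luminescence. Reduced reporter release = ER Ca stabilization.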
# [8] = Vero-766 cells viability qHTS against the NCATS CANVASS Library: Counterscreen for Zika virus inhibition assay (AID 1347394); conditions: Vero 766 viability, CellTiter-Glo luminescence, 72 h; series mostly up to 46.1 µM; note: potency is the fitted concentration of half-maximal effect; nearly all actives have a fitted effect of over 60% in size
# In short: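 CellTiter Glo luminescence measured cytotoxicity after 72 h at 37C in uninfected Vero 766 cells, plated at 1000 cells/well. Compounds were applied in an 11-point series. Wells without cells defined 100% inhibition.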
# [9] = target: Cytochrome P450 2C19 (Homo sapiens) (UniProt P33261); assay: qHTS Assay for Inhibitors and Substrates of Cytochrome P450 2C19 (AID 899); conditions: recombinant CYP2C19, luciferin-H EGE luminescence; series mostly up to 57.1 µM; note: potency is the fitted concentration of half-maximal effect; nearly all actives have a fitted effect of over 60% in size
# Sequence of UniProt P33261 (P33261 whole entry, looked up): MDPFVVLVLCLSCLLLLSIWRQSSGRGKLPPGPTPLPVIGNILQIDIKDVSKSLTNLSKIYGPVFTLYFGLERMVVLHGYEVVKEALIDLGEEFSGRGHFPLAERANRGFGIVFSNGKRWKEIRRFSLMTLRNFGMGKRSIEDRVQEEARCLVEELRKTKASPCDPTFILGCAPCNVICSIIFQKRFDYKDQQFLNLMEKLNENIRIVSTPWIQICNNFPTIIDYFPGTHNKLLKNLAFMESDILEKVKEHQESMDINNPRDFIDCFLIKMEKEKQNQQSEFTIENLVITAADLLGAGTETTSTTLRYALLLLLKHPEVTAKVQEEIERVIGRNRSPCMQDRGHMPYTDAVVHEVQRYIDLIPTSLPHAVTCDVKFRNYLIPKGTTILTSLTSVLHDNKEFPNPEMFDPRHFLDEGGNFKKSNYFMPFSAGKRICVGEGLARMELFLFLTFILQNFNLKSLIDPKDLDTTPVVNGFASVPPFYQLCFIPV
# In short: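 5 nM human CYP2C19 with 10uM Luciferin-H EGE (at KM) in 50mM KPO4, compound preincubated 10 min at 37C, then NADPH regeneration for 60 min at 37C. Luciferin read by luminescence after detection reagent; normalized to 57uM ketoconazole as full inhibition.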
# [10] = target: Glucocorticoid receptor (Homo sapiens) (UniProt P04150); assay: GR-EFC Redistribution (AID 451; calls by dose curve; note: potency is the fitted concentration of half-maximal effect); conditions: CHO-K1 GR-EFC translocation, beta-gal luminescence, 2 h
# Sequence of UniProt P04150 (P04150 whole entry, looked up, the tested form may be a part): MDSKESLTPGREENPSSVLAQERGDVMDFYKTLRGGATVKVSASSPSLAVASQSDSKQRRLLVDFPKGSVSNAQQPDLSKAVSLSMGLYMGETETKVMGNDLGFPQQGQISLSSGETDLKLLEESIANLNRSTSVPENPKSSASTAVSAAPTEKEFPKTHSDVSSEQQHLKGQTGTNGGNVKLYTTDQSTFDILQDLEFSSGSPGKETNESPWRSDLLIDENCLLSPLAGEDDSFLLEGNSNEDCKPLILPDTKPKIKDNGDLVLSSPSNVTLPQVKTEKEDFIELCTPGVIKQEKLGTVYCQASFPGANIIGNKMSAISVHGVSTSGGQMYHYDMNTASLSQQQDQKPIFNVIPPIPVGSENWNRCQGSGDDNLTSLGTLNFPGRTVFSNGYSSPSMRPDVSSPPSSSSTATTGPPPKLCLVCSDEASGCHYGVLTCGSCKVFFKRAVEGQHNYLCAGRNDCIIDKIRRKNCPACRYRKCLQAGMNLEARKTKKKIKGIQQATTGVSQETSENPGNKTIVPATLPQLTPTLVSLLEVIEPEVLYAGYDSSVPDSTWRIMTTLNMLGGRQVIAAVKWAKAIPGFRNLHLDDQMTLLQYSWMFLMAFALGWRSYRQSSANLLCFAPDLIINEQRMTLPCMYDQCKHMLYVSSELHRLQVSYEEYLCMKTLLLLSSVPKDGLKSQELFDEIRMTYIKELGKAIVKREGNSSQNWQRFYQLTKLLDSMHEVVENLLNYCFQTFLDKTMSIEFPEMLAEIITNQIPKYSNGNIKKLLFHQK
# In short: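 CHO-K1 cells expressing nuclear EA and GR-ED fragments of b-gal; compounds titrated up to 46 uM final, 2 h at 37 C. GR nuclear translocation read as complemented b-gal luminescence after 1 h RT detection.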
# [11] = target: Ubiquitin carboxyl-terminal hydrolase 2 (Homo sapiens) (UniProt O75604); assay: qHTS Validation Assay for Inhibitors of Ubiquitin-specific Protease USP2a Using CHOP2 as the Reporter (AID 463106); conditions: USP2a cleavage of CHOP2 reporter, enzymatic; series mostly up to 38.3 µM;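 note: plate controls were DMSO for no effect and full inhibition by NEM for full effect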
# Sequence of UniProt O75604 (O75604 whole entry, looked up): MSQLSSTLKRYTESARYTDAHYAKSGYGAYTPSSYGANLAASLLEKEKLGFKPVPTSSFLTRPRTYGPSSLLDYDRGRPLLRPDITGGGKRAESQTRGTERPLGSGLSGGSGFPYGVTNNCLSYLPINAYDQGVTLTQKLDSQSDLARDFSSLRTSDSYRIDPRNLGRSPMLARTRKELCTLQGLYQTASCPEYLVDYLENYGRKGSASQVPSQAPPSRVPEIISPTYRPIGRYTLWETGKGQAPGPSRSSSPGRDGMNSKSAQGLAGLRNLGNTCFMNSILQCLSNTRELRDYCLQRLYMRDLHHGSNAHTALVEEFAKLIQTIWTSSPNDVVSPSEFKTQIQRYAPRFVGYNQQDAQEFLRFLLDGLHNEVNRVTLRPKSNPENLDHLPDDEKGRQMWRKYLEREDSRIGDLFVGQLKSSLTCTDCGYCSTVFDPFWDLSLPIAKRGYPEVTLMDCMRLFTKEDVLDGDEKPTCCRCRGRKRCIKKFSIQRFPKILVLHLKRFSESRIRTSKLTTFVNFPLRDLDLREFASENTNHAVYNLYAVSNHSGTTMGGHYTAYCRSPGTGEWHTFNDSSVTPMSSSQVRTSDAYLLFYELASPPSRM
# In short: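 Fluorescence read-out at Ex 485nm/Em 531nm after 60min RT, following addition of 25nM Ub-CHOP2 plus 25nM reporter substrate to USP2 core (10nM) pretreated 30min with compound. Data normalized to NEM full inhibition; concentration-response curves fitted.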
# [12] = qHTS for inhibitors of adenylyl cyclases using a fission yeast platform: a pilot screen against the NCATS LOPAC library (AID 1347410); note: potency is the fitted concentration of half-maximal effect; conditions: S. pombe CHP2027, fbp1-GFP fluorescence, 18 h; yeast expressing mammalian AC9 and human GNAS
# In short: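 GFP from fbp1-GFP reporter, read by Acumen laser cytometry, indicates AC inhibition in fission yeast expressing AC9, GNAS and PDE4D2. Cells grown 18 h in the dark at 30C with compounds, final up to 57 uM.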
# [13] = target: Thyrotropin receptor (Homo sapiens) (UniProt P16473); assay: qHTS Assay for Antagonists of the Thyroid Stimulating Hormone Receptor (AID 488980); conditions: TSHR-expressing cells, cAMP antagonist read-out; note: potency is the fitted concentration of half-maximal effect
# Sequence of UniProt P16473 (P16473 whole entry, looked up): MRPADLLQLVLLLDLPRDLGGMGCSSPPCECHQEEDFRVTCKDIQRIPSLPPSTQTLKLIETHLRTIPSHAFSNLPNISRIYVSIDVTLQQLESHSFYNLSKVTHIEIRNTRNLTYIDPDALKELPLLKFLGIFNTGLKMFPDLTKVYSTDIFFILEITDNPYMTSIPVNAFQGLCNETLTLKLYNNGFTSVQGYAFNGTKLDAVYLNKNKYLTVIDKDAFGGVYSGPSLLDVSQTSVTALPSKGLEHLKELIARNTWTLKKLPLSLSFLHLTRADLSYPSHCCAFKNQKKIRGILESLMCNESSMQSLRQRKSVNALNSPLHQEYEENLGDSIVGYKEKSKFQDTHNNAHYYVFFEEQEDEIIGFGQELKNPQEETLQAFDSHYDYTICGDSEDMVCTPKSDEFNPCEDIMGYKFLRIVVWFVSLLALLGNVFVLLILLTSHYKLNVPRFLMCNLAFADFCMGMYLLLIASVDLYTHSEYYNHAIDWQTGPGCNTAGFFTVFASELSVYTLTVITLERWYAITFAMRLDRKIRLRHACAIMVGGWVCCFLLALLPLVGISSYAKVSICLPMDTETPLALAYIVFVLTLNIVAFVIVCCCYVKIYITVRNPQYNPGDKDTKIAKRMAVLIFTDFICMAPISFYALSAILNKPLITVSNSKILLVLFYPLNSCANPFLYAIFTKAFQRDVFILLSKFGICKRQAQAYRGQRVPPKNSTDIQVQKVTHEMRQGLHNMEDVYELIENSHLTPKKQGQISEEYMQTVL
# In short: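 Inhibition of cAMP raised by EC80 TSH (4 nM final) was read by HTRF, with lysate cAMP competing against cAMP-d2 for cryptate antibody after 30 min at room temperature. The cells were transfected HEK293 held in phosphodiesterase inhibitor RO 20-1724 at 70 uM.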
# [14] = qHTS for Activators of Parkin Expression: LOPAC Validation Assay (FLuc Reporter) (AID 720573;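 note: 0% = DMSO and 100% = positive control compounds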); conditions: Cell line, PRKN promoter firefly luciferase reporter; series mostly up to 46.1 µM
# In short: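 FLuc signal from Parkin-promoter coincidence reporter neuronal cells, normalized to DMSO and positive control (100%). Cells (1,500/well) pre-incubated 24 h, then exposed to LOPAC compounds in 7-point dose response for 24 h at 37 C, 5% CO2.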
# [15] = tested on: Zika virus NS2B-NS3 protease (unlinked complex); assay: Primary screen GU Rhodamine qHTS for Zika virus inhibitors: Unlinked NS2B-NS3 protease assay (AID 1347159); conditions: Recombinant ZIKV NS2B-NS3 protease, Rhodamine110 substrate fluorescence; series mostly up to 171 µM
# In short: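 Enzyme 25 nM in Tris-HCl pH 8.0 + 0.01% Tween 20; compounds up to 114 microM, 15 min RT dark; + Rhod110 substrate 1.5 microM; read t0 and 15 min; delta fluorescence → % inhibition → 4-parameter Hill fit.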
# [16] = tested on: Zika virus NS2B-NS3 protease (linked construct); assay: Primary screen NINDS Rhodamine qHTS for Zika virus inhibitors (AID 1347160); conditions: purified NS2B-NS3 protease, Rhodamine110 substrate fluorescence; series mostly up to 112 µM; note: % is set by controls: 0 for no effect and ±100 for the full control effect; nearly all actives have a fitted effect of over 55% in size
# In short: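 Enzyme (25 nM, linked NS2B-NS3) was preincubated 15 min with compound in 10 mM Tris-HCl pH 8.0, 0.01% Tween 20. Rhodamine110 substrate (1.5 microM) was then added and fluorescence read at start and after 15 min.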
# [17] = Primary fluorescence-based thiol-reactive (MSTI) qHTS assay for identification of artifact compounds. (AID 1845221); conditions: MSTI thiol-reactivity probe, 1 h; series mostly up to 53.8 µM;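 note: potency is the fitted concentration of half-maximal effect; thiol-reactive compounds lower the probe fluorescence signal; nearly all actives have a fitted effect of over 65% in size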
# In short: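 In PBS pH 7.4 with 2% DMSO, each compound met 4 uM MSTI for one hour at ambient temperature, shielded from light, before fluorescence detection.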
# [18] = Cell Viability - N2a (AID 540); conditions: N2a mouse neuroblastoma cell viability; activity change, negative = cytotoxicity: at 92.2 µM (top of the series);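 note: cells exposed to compound for 40 h at 37 °C; plate controls were DMSO alone for no effect and tamoxifen control for full effect; nearly all actives have a fitted effect of over 45% in size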
# In short: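 Cytotoxicity was scored as loss of cellular ATP in N2a cells, a mouse neuroblastoma line. Compounds are applied in a qHTS concentration series for 40 hr at 37 °C.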
# [19] = Cell Viability - Mesenchymal (AID 546); conditions: mesenchymal cells viability, qHTS; activity change, negative = cytotoxicity: at 91.7 µM (top of the series);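 note: cells exposed to compound for 40 hours before reading; 0% = DMSO only and -100% = 100 µM tamoxifen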
# In short: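 Human renal mesenchymal cells (glomerulus-derived), 1000 cells/well, 5 hr 37 °C pre-incubation; compound 40 hr, 37 °C; CellTiter-Glo, 20 min RT; luminescence; AC50 via Hill equation.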
# [20] = qHTS assay for small molecule activators of the p53 signaling pathway (AID 651743; active = well fitted activation curve with a large enough effect in the signal ratio, not every such curve was filed as active; inconclusive = small, poorly fitted or top-dose-only effect, or a change in a side signal; the % refers to the signal ratio; note: potency is the fitted concentration of half-maximal effect); conditions: HCT-116 p53RE-bla, beta-lactamase FRET ratio, 16 h; activation: stronger effect = higher value
# In short: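 Following 16 hours of compound exposure at 37 C, HCT-116 cells bearing the p53RE-bla reporter were loaded with LiveBLAzer B/G FRET substrate for 2 hours at room temperature and fluorescence intensity was recorded.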
# Tags give direction and shape of the fitted curve.
structure (smiles),measurement,setting,value
COc1ccc2c(c1)[nH]c1c(C)nccc12,Potency,[1],active: 11.2 µM
same,Potency,[2],inactive
same,Potency,[3],"inconclusive [cytotoxic, single point]"
same,Potency,[4],"inconclusive [cytotoxic, single point]"
same,Potency,[5],active: 21.5 µM
same,Potency,[6],active: 62.7 µM
same,Potency,[7],"inconclusive [inhibitor, full curve, poor fit]"
same,Potency,[8],"inconclusive [cytotoxic, partial curve]"
CC(C)(C)c1cc(C=C(C#N)C#N)cc(C(C)(C)C)c1O,Potency,[9],"inconclusive [inhibitor, full curve, poor fit]"
c1ccc2c(c1)[I+]c1ccccc1-2,Potency,[10],inconclusive [single point]
same,Potency,[11],inactive
same,Potency,[12],"inconclusive [activator, full curve, poor fit]"
CNc1ccc2oc(C[C@H]3O[C@@]4(CC[C@H]3C)O[C@H]([C@H](C)C(=O)c3ccc[nH]3)[C@H](C)C[C@H]4C)nc2c1C(=O)O,Potency,[13],"inconclusive [inhibitor, partial curve]"
Cc1sc2ccccc2c1CC1=NCCN1,Potency,[14],inactive
CC(=O)NCCc1c[nH]c2ccccc12,Potency,[15],inactive
same,Potency,[16],inactive
same,Potency,[17],"inconclusive [inhibitor, partial curve]"
O=C1C=CC(=O)C=C1,"activity change, negative = cytotoxicity",[18],inactive: -7.74%
same,Potency,[19],inactive
same,Potency,[20],"inconclusive [side channel, falling, partial curve, poor fit]"
